# Out of some 50,000 compounds screened, about 800 (1.6%) showed an effect of 50% or more. The list shows a part of the results.
# Biological target: Bcl-2-like protein 10 (Homo sapiens) (UniProt Q9HD36)
# Assay: TR3 peptide-Bcl-B binding displacers, biochemical primary FP assay, phenotype converters (AID 1240);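 further: 0% = Bcl-B with tracer peptide and DMSO and 100% = tracer peptide lacking Bcl-B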
# Conditions: GST-Bcl-B / FITC-TR3 peptide fluorescence polarization; stronger effect = higher value; compound at 3.75 mg/L
# UniProt Q9HD36, sequence (Q9HD36 whole entry, looked up): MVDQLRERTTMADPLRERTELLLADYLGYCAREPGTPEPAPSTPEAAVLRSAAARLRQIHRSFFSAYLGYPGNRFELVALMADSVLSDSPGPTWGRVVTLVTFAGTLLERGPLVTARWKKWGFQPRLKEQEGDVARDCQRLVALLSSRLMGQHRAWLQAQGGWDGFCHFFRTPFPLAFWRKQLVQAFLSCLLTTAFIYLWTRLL
row,Structure (SMILES),displacement
1,O=C(Nc1ccccc1F)c1cnccn1,7.5%
2,COc1ccc(N=Cc2c(C)[nH]n(-c3ccccc3)c2=O)cc1,1.2%
3,CCOc1ccccc1N1CCN(C(=O)c2ccncc2)CC1,-2.3%
4,O=C1C2=C(C(c3ccccc3)=NCCN2)C(c2ccc3c(c2)OCO3)N1c1ccccc1 (centres undefined),-0.1%
5,Cc1ccc(N2C(=O)CC(N3CCc4ccccc4C3)C2=O)cc1 (centres undefined),1.9%
6,CC(C)(CNC(c1ccccc1)c1ccccc1)NS(=O)(=O)c1ccc(Cl)cc1,10.6%
7,Fc1cccc(NC(=S)NC(c2ccccc2)c2ccccc2)c1,-3.9%
8,O=[N+]([O-])c1ccc(C=Nc2ccc(Br)cn2)o1,11.7%
9,O=C(Nc1ccc2nc3c4ccccc4c4ccccc4c3nc2c1)N1CCOCC1,77.1%
10,COc1cc([N+](=O)[O-])ccc1N1C(=O)C2C3C=CC(C3=C(C)C)C2C1=O (centres undefined),13%
11,COC(=O)c1ccc(/C=C2/C=C(c3ccc(Br)cc3)OC2=O)cc1,11.9%
12,NC(=O)C1CCN(C(=O)c2cccc(C#Cc3ccccc3)c2)CC1,-2.3%
13,O=C(Nc1c(C(=O)N2CCCC2)cnn1-c1ccccc1)c1ccc(Br)cc1,-10.4%
14,Cc1cc(C(=O)N2CCN(C)CC2)ccc1[N+](=O)[O-],14.6%
15,COc1ccc(C(=O)/C=C/c2cccc(OC)c2OC)cc1,0%
16,O=C1C2C3CCC(O3)C2C(=O)N1c1ccccn1 (centres undefined),15.9%
17,CN(C)c1ccc(-c2nc3sc4c(c3c(=O)[nH]2)CCCC4)cc1,-12%
18,Cc1ccc(OCc2nnc(NC(=O)c3ccco3)s2)cc1,15.1%
19,Cc1cccc(N2C(=O)c3cccc([N+](=O)[O-])c3C2=O)n1,6.1%
20,Cc1ccc(O)c(NC(=O)c2cc3nc(-c4ccc(F)cc4)cc(C(F)(F)F)n3n2)c1,4.5%
21,COc1cc(C=Nc2c(C)n(C)n(-c3ccccc3)c2=O)c([N+](=O)[O-])cc1OC,130%
22,CON(C)c1nc(OCCNC(=O)COc2ccc(Cl)cc2Cl)nc(N(C)C)n1,-7.4%
23,S=C(Nc1ccc(Cl)cc1Cl)NC1CCCCC1,-6.9%

row,Structure (SMILES),displacement
1,CCOC(=O)c1c(NC(=O)COc2ccc(Cl)cc2)sc(C(=O)N2CCCCC2)c1C,6%
2,COC(=O)CN1C(c2ccc(OC)cc2)Nc2ccc(Br)cc2C1c1ccccc1 (centres undefined),11.2%
3,Cc1oc2ccc(OCC(=O)C(C)(C)C)cc2c1C(=O)OC(C)C,5.2%
4,COc1cc(NC(=O)c2cccnc2)ccc1NC(=O)c1ccco1,2.5%
5,O=C(Nc1ccc(Br)cc1F)c1cc(-c2ccccc2)nc2ccccc12,1.1%
6,Cc1onc(-c2c(Cl)cccc2Cl)c1C(=O)Nc1cc(Cl)ccc1Cl,5.3%
7,CCCC(=O)NS(=O)(=O)c1ccc(NC(=O)c2ccc(Cl)cc2)cc1,12.1%
8,CN(C)c1ccc(NC(=O)COc2ccccc2Cl)cc1,-1.7%
9,Cc1cc(Nc2cccc(O)c2)n2ncnc2n1,10.1%
10,O=C(O)c1ccc(N/C(=N\S(=O)(=O)c2ccc(Cl)cc2)c2ccccc2)cc1,11%
11,O=C(C#Cc1ccc([N+](=O)[O-])cc1)c1ccccc1,5.1%
12,Cc1ccc(C(O)(CN(Cc2ccccc2)C(=O)c2ccccc2)c2ccccc2)cc1 (centres undefined),-3.9%
13,CCOC(=O)c1c(NC(=O)c2ccc(Cl)c([N+](=O)[O-])c2)sc(C(=O)Nc2cc(C(F)(F)F)ccc2Cl)c1C,13.7%
14,NC(=O)c1ccc[n+](CC(=O)OCC23CC4CC(CC(C4)C2)C3)c1,3.2%
15,COC(=O)C1=C(C)N(c2ccc(F)cc2)/C(=C/c2ccc(O)cc2)C1=O,1.7%
16,CC(NC(=O)c1ccccc1NC(=O)c1ccccc1F)c1ccccc1 (centres undefined),5%
17,O=C(O)CN1C(=O)/C(=C\c2cccc3ccccc23)SC1=S,-28%
18,O=S(=O)(c1ccc2c(c1)Cc1ccccc1-2)N1CCCCC1,-14.2%
19,COc1cc([N+](=O)[O-])ccc1NC(=O)/C=C/c1ccc(OC)c(OC)c1,-7%
20,O=[N+]([O-])c1ccc(N2CCCCC2)nc1,2.8%
21,Cc1ccc2[nH]c(C(=O)N/N=C/c3cccs3)c(-c3ccccc3)c2c1,-9.7%
22,Cc1c(Cl)cccc1N=Cc1ccc([N+](=O)[O-])o1,11.9%
23,O=C(O)COc1ccc2c(=O)c(-c3ccc(Cl)cc3)coc2c1,-2.6%

row,Structure (SMILES),displacement
1,CN(C)CCCNC(=O)c1cccc(F)c1,-6%
2,C/C(=N\NC(=O)C1CC1)c1cccnc1,2.7%
3,CC(C)(C)c1ccc(OCCn2cc(/C=C3/SC(=S)NC3=O)c3ccccc32)cc1,15.2%
4,O=C1CC(N2CCN(c3ccc(Cl)cc3)CC2)C(=O)N1CCc1ccccc1 (centres undefined),9.7%
5,Cc1cc(C)c2oc(-c3ccc(C)c(NC(=O)c4cccc(Cl)c4Cl)c3)nc2c1,8.7%
6,Cc1ccc(N2C(=O)NC(=O)/C(=C\c3ccc(C)s3)C2=O)cc1,13.4%
7,CCSCCOC(=O)C1=C(C)N(C)C(=O)NC1c1cc2c(cc1Br)OCO2 (centres undefined),-3.4%
8,O=S(=O)(Nc1cc(Cl)c(O)c2ccccc12)c1ccc(F)cc1,4.7%
9,Cc1c(C(=O)OC(C)C)sc(NC(=O)c2cccc(F)c2)c1C#N,-10%
10,N#CC1=C(S)NC(=O)C(C#N)C12CCCCC2 (centres undefined),-5.2%
11,O=C(Nc1ccc(-c2nc3ccccc3o2)c(O)c1)c1cccc(OCc2ccccc2)c1,8.1%
12,O=C(NCc1cccnc1)C(O)(c1ccccc1)c1ccccc1,8.1%
13,Cn1c(=O)cc(NCCc2ccccc2)[nH]c1=O,-1.7%
14,COc1ccc(/C=C/C(=O)c2ccc(Br)cc2)cc1[N+](=O)[O-],12.9%
15,CCOC(=O)c1cnn(-c2ccccc2)c1NC(=O)c1ccccc1C,-10.1%
16,CCN1C(=O)/C(=C\c2ccc(F)cc2)C(C(=O)OC)=C1C,34.2%
17,CCCN(CCC)CCSc1nc(O)c(C(C)C)c(=O)n1-c1ccccc1,-11.9%
18,COc1ccccc1/C=C(/C#N)c1nc2ccc(C)cc2[nH]1,-7.2%
19,O=C(CCN1C(=O)/C(=C/c2cccs2)SC1=S)NC12CC3CC(CC(C3)C1)C2,10.5%
20,COc1ccc(C(=O)N2N=C(C)CC2(O)c2ccc(Br)cc2)cc1 (centres undefined),-6.5%
21,CN1CCO/C1=C(C#N)\C=C1\Nc2ccccc2C1=O,-77.4%
22,CCOc1ccc(C(=O)Nc2cc(C(=O)OC)cc(C(=O)OC)c2)cc1[N+](=O)[O-],7.6%
23,Cc1ccc(N2C(=O)C(Cl)=C(Nc3ccccc3F)C2=O)c(C)c1,71.5%

# — PubChem BioAssay AID1240 (Sanford-Burnham Center for Chemical Genomics, 2008)
